Here are results for 46 compounds from the supplement of paper PMC4723716.

± gives the uncertainty stated by the source. Whole data set: some 9,900 compounds, median “viability index relative to DMSO control” near 1, cut for the lowest 2% near 0.85. Some of the results follow.

For the assay, the system named is Plasmodium falciparum NF54 stage V gametocytes. Kind of assay: viability index relative to DMSO control (fraction); higher = less gametocyte killing. Conditions: 2.5 µM, library set: Broad Institute DOS, incubation time: 72 h. Summed up:
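P. falciparum NF54 stage V gametocytes (serum-free medium, 0.75% gametocytemia, 1.25% hematocrit) were exposed to compound at 2.5 µM for 72 hr at 37°C under low oxygen, then stained with MitoTracker Red CMXRos and saponin for one to two hours. Red particles of 20–70 µm2 in one field per well were counted, and the viability index is that count scaled to the plate mean of solvent-only wells.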
Compound `C[C@H]1CC(=O)NCC/C=C\C[C@@H](c2cccc(Cl)c2)NC1=O` gave a viability index of 0.934 ± 0.1.
Compound `CC(C)(O)C#Cc1ccc([C@@H]2[C@@H](CO)N3CCCCN(S(C)(=O)=O)C[C@@H]23)cc1` gave a viability index of 1.09 ± 0.017.
The value for `N#C[C@H]1N[C@@H](CO)[C@@H]1c1ccc(C#CC2CCCCC2)cc1` was 1.068 ± 0.0084; that for `C[C@@H]1CN([C@@H](C)CO)C(=O)CCCn2nncc2CO[C@H]1CN(C)C(=O)Nc1ccc2c(c1)OCCO2` was 1.04 ± 0.062; that for `OC[C@@H]1[C@H](c2ccc(C#CC3(O)CCCC3)cc2)[C@H]2CN(Cc3cncnc3)CCCCN12` was 1.07 ± 0.044.
The value for `Cc1noc(C)c1NC(=O)Nc1ccc2c(c1)CC(=O)N([C@@H](C)CO)C[C@@H](C)[C@H](CN(C)Cc1ccc(C(F)(F)F)cc1)O2` was 1.06 ± 0.039; that for `COc1ccccc1NC(=O)N1CCCCN2[C@@H](CO)[C@@H](c3ccc(-c4cccc(C#N)c4)cc3)[C@@H]2C1` was 0.93 ± 0.028.
The figure for `COc1ccccc1CNC(=O)C[C@@H]1CC[C@@H]2[C@H](COC[C@H](O)CN2Cc2ccc3c(c2)OCO3)O1` is 1.08 ± 0.045.
Regarding `O=C(N[C@@H]1C=C[C@H](CC(=O)N2CCN(c3ccccc3)CC2)O[C@H]1CO)c1ccccc1`, the viability index amounted to 1.12 ± 0.051.
For the compound `CCCC(=O)Nc1ccc2c(c1)C(=O)N(C)[C@H]1CC[C@H](CC(=O)N3CCCCC3)O[C@H]1CO2`, the viability index is 1.14 ± 0.078.
For `O=C(C[C@H]1C[C@@H]2c3cc(NC(=O)CC4CC4)ccc3O[C@@H]2[C@H](CO)O1)NCC1CC1`, the viability index was 1.12 ± 0.018.
The figure for `O=C(Nc1ccc(F)cc1)N1CC(=O)N2[C@H](CO)[C@H](c3ccc(C4=CCCC4)cc3)[C@@H]2C1` is 0.994 ± 0.029; for `CS(=O)(=O)N1CC(=O)N2[C@H](CO)[C@H](c3ccc(Br)cc3)[C@@H]2C1` it is 1.016 ± 0.0034.
The value for `C[C@H]1CCCCO[C@H](CN(C)S(=O)(=O)c2cn(C)cn2)[C@@H](C)CN([C@@H](C)CO)C(=O)c2cc(N(C)C)ccc2O1` was 1.03 ± 0.062.
Take `COc1ccccc1S(=O)(=O)N(C)C[C@H]1OCc2cn(nn2)CCCC(=O)N([C@H](C)CO)C[C@@H]1C`: the viability index is 1.07 ± 0.035.
In the case of `CN1CCN(C(=O)C[C@@H]2CC[C@@H]3[C@H](COc4ccc(NC(=O)c5cccs5)cc4C(=O)N3C)O2)CC1`, the viability index worked out at 0.944 ± 0.073.
The figure for `COc1ccc2c3c([C@@H](CO)N(C[C@]33CCN(CC3)C(=O)c3cnccn3)C(C)=O)n(C)c2c1` is 0.958 ± 0.058; for `COc1ccc2c3c([C@@H](CO)N(C[C@]33CCN(CC3)S(C)(=O)=O)C(=O)CN(C)C)n(C)c2c1` it is 0.956 ± 0.029; for `C[C@@H]1CCCCO[C@H](CN(C)C(=O)C2CCCCC2)[C@H](C)CN([C@H](C)CO)C(=O)c2cc(NS(=O)(=O)c3ccccc3)ccc2O1` it is 0.904 ± 0.053.
With `CCCNC(=O)C[C@@H]1CC[C@@H]2[C@H](COC[C@H](O)CN2Cc2ccncc2)O1`, the viability index amounted to 1.06 ± 0.028.
On to `C[C@@H]1CN([C@H](C)CO)C(=O)c2cc(C#CC3(O)CCCC3)cnc2O[C@@H]1CN(C)S(=O)(=O)c1cccc(F)c1`, for which the viability index was 1.04 ± 0.032.
Regarding `CCCNC(=O)C[C@@H]1CC[C@@H]2[C@H](COC[C@@H](O)CN2C(=O)c2ccc(F)cc2)O1`, the viability index was found to be 1.02 ± 0.033.
The figure for `O=C(Nc1ccc(F)cc1)N1CC(=O)N2[C@H](C1)[C@@H](c1ccc(-c3cccc(F)c3)cc1)[C@@H]2CO` is 1.07 ± 0.05.
Compound `CN1c2ccc(Br)cc2[C@H]2[C@H](CCN2C(=O)C2CCC2)[C@@H]1CO` gave a viability index of 1.04 ± 0.076.
The figure for `CN1c2ccc(Br)cc2[C@H]2[C@H](CCN2S(=O)(=O)c2ccccc2F)[C@H]1CO` is 1.08 ± 0.044; for `CN(C)CC(=O)N1C[C@@H]2N[C@H](C1)[C@@H]2c1ccc(C2=CCCCC2)cc1` it is 0.898 ± 0.013; for `CN1CCN(C(=O)C[C@@H]2C[C@@H]3c4cc(NS(C)(=O)=O)ccc4O[C@@H]3[C@@H](CO)O2)CC1` it is 0.994 ± 0.013.
In turn, `CCN(C[C@H]1[C@@H](c2ccccc2)[C@H](CO)N1C(=O)COC)S(C)(=O)=O` registered a viability index of 1.05 ± 0.035.
`Cc1ccc(OC(=O)N(C)C[C@H]2OCc3ccccc3-c3ccccc3C(=O)N([C@H](C)CO)C[C@H]2C)cc1` yielded a viability index of 0.992 ± 0.024.
On to `OC[C@@H]1[C@@H](c2ccccc2)C2(CN(CCC(F)(F)F)C2)N1Cc1nccs1`, for which the viability index was 1.09 ± 0.046.
For `COc1ccccc1-c1ccccc1[C@@H]1[C@@H](CO)N(C(=O)CN(C)C)[C@H]1C#N`, the viability index stood at 1.06 ± 0.021.
`CCCC(=O)Nc1ccc2c(c1)C(=O)N(C)C[C@@H](OC)[C@H](C)CN(C(=O)c1ccccn1)[C@@H](C)CO2`: the viability index was 1.07 ± 0.018.
Consider `Cc1noc(C)c1NC(=O)Nc1ccc2c(c1)CC(=O)N([C@@H](C)CO)C[C@@H](C)[C@@H](CN(C)Cc1ccc(C(F)(F)F)cc1)O2`, for which the viability index turned out to be 1.01 ± 0.09.
`CC(C)C#Cc1ccc([C@H]2[C@@H](CO)N3C(=O)CN(C(=O)Cc4ccccc4)C[C@@H]23)cc1` displayed a viability index of 1.07 ± 0.021.
As for `C=C(C)C[C@H]1CCn2cc(nn2)COCCNC1=O`, the viability index is 1.06 ± 0.015.
Consider `C[C@@H]1CN([C@@H](C)CO)C(=O)c2cc(NC(=O)Nc3ccc(C(F)(F)F)cc3)ccc2O[C@@H](C)CCCCO[C@@H]1CN(C)S(=O)(=O)c1ccc(Cl)cc1`, for which the viability index turned out to be 1.04 ± 0.038.
In the case of `COc1ccc(-c2ccc3n(c2=O)C[C@H]2[C@H](CO)[C@@H](C(=O)NCC4CC4)N(C(=O)NC(C)C)[C@@H]32)cc1`, the viability index is 1.1 ± 0.03.
`CN(C)C(=O)c1cccc(-c2ccccc2[C@@H]2[C@H](C#N)N(C(=O)C3CCCCC3)[C@H]2CO)c1` registered a viability index of 1.03 ± 0.049.
`COc1ccc2c3c([nH]c2c1)[C@@H](CO)N(Cc1nccs1)C[C@]31CN(Cc2ccncc2)C1`: the viability index came out at 1.02 ± 0.079.
With `CCC(=O)N1CC(=O)N2[C@@H](CO)[C@H](c3ccc(C#CCC(C)C)cc3)[C@@H]2C1`, the viability index was 0.947 ± 0.059.
The value for `Cc1ccc(-c2ccc([C@@H]3[C@@H](CO)N4C(=O)CN(C(=O)NC(C)C)C[C@H]34)cc2)cc1` was 1.03 ± 0.15.
Take `COCC(=O)N1CC[C@@]2(CC1)CN(Cc1cc(F)ccc1F)[C@H](CO)c1c2c2ccc(OC)cc2n1C`: the viability index worked out at 0.943 ± 0.028.
`O=C(C1CCC1)N1C[C@H]2[C@@H](c3ccccc31)[C@@H](CO)N2Cc1ccccc1` came in with a viability index of 1.09 ± 0.15.
`CC[C@H]1C/C=C\C[C@H](CC)NC(=O)[C@H](C)CC(=O)N1` had a viability index of 1.09 ± 0.071.
`CO[C@@H]1CN(C)C(=O)c2ccc(NC(=O)c3nc4ccccc4s3)cc2OC[C@@H](C)N(Cc2cccnc2)C[C@@H]1C` had a viability index of 1.04 ± 0.02.
For the compound `C/C=C/c1cccc(-c2nc(C(=O)NCc3cccc(OC)c3)cc3c2[C@H](CCO)N([S@@](=O)C(C)(C)C)C3)c1`, the viability index stood at 1.05 ± 0.015.
